# Experimental data: the supplement of paper PMC6089552
# Hit rate of the full screen: of about 3,200 compounds, about 300 (9.4%) showed activity. Only a part is listed here, and it is no random draw.
# Test system: A673/TR/shEF
# Test: cell viability (LOESS-normalised, relative to median of negative controls) (log2 ratio); higher = more viable cells (less compound effect), active = hit call of the paper (over 3 MAD below the median)
# Details: treatment time: 72 h
# Summary of the method: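 A673/TR/shEF Ewing sarcoma cells were plated at 1,500 per well in 384-well plates and cultured with or without doxycycline, added 24 h before compounds, to induce EWS-FLI1 shRNA knockdown. Library compounds at two or more concentrations, alongside DMSO controls, were applied for three days. Cell viability was measured by CellTiter-Glo luminescence on an Envision reader. Readings were LOESS-corrected per plate, divided by the median of negative controls and log2-transformed, and hits were wells lying at least three median absolute deviations from the median of all screened wells.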
# [1] = 0.25 µM, library screen: screen1, EWS-FLI1 expression: high (no doxycycline)
# [2] = 0.25 µM, library screen: screen1, EWS-FLI1 expression: low (doxycycline-induced shRNA knockdown)
# [3] = 2.5 µM, library screen: screen1, EWS-FLI1 expression: high (no doxycycline)
# [4] = 2.5 µM, library screen: screen1, EWS-FLI1 expression: low (doxycycline-induced shRNA knockdown)
# [5] = 0.103 µM, library screen: screen3, EWS-FLI1 expression: high (no doxycycline)
# [6] = 0.103 µM, library screen: screen3, EWS-FLI1 expression: low (doxycycline-induced shRNA knockdown)
# [7] = 0.308 µM, library screen: screen3, EWS-FLI1 expression: high (no doxycycline)
# [8] = 0.308 µM, library screen: screen3, EWS-FLI1 expression: low (doxycycline-induced shRNA knockdown)
# [9] = 0.926 µM, library screen: screen3, EWS-FLI1 expression: high (no doxycycline)
# [10] = 0.926 µM, library screen: screen3, EWS-FLI1 expression: low (doxycycline-induced shRNA knockdown)
# [11] = 2.8 µM, library screen: screen3, EWS-FLI1 expression: high (no doxycycline)
# [12] = 2.8 µM, library screen: screen3, EWS-FLI1 expression: low (doxycycline-induced shRNA knockdown)
# [13] = 8.3 µM, library screen: screen3, EWS-FLI1 expression: high (no doxycycline)
# [14] = 8.3 µM, library screen: screen3, EWS-FLI1 expression: low (doxycycline-induced shRNA knockdown)
# [15] = 25 µM, library screen: screen3, EWS-FLI1 expression: high (no doxycycline)
# [16] = 25 µM, library screen: screen3, EWS-FLI1 expression: low (doxycycline-induced shRNA knockdown)
# [17] = 0.25 µM, library screen: screen2, EWS-FLI1 expression: high (no doxycycline)
# [18] = 0.25 µM, library screen: screen2, EWS-FLI1 expression: low (doxycycline-induced shRNA knockdown)
# [19] = 2.5 µM, library screen: screen2, EWS-FLI1 expression: high (no doxycycline)
# [20] = 2.5 µM, library screen: screen2, EWS-FLI1 expression: low (doxycycline-induced shRNA knockdown)
smiles,measurement,setting,value
CC1=C(/C=C/C(C)=C/C=C/C(C)=C/C=C/C=C(C)/C=C/C=C(C)/C=C/C2=C(C)CCCC2(C)C)C(C)(C)CCC1,cell viability (log2),[1],inactive: 0.0893
same,cell viability (log2),[2],inactive: 0.0636
same,cell viability (log2),[3],inactive: 0.0911
same,cell viability (log2),[4],inactive: 0.187
Nc1ccc(O)c(C(=O)O)c1,cell viability (log2),[5],inactive: 0.0813
same,cell viability (log2),[6],inactive: 0.122
same,cell viability (log2),[7],inactive: 0.183
same,cell viability (log2),[8],inactive: 0.141
same,cell viability (log2),[9],inactive: 0.124
same,cell viability (log2),[10],inactive: 0.118
same,cell viability (log2),[11],inactive: 0.063
same,cell viability (log2),[12],inactive: 0.188
same,cell viability (log2),[13],inactive: 0.021
same,cell viability (log2),[14],inactive: 0.0712
same,cell viability (log2),[15],inactive: 0.0772
same,cell viability (log2),[16],inactive: 0.096
CCCCC[C@@H](CC(=O)O)C(=O)O,cell viability (log2),[1],inactive: 0.0401
same,cell viability (log2),[2],inactive: 0.147
same,cell viability (log2),[3],inactive: 0.16
same,cell viability (log2),[4],inactive: 0.126
Cc1cc(NC(=O)C2=C(O)c3ccccc3S(=O)(=O)N2C)no1,cell viability (log2),[1],inactive: 0.145
same,cell viability (log2),[2],inactive: 0.17
same,cell viability (log2),[3],inactive: 0.123
same,cell viability (log2),[4],inactive: 0.0859
Cc1cc(C(C)(C)CC(C)(C)C)ccc1OCCOCC[N+](C)(C)Cc1ccccc1,cell viability (log2),[1],inactive: 0.0514
same,cell viability (log2),[2],inactive: 0.0498
same,cell viability (log2),[3],inactive: 0.0273
same,cell viability (log2),[4],inactive: 0.0435
CN(C)CCCN1c2ccccc2CCc2ccc(Cl)cc21,cell viability (log2),[5],inactive: 0.0151
same,cell viability (log2),[6],inactive: 0.0554
same,cell viability (log2),[1],inactive: 0.0507
same,cell viability (log2),[2],inactive: 0.096
same,cell viability (log2),[17],inactive: 0.145
same,cell viability (log2),[18],inactive: 0.167
same,cell viability (log2),[7],inactive: 0.0121
same,cell viability (log2),[8],inactive: 0.0709
same,cell viability (log2),[9],inactive: 0.0261
same,cell viability (log2),[10],inactive: 0.0892
same,cell viability (log2),[3],inactive: 0.0898
same,cell viability (log2),[4],inactive: 0.0888
same,cell viability (log2),[19],inactive: 0.0722
same,cell viability (log2),[20],inactive: 0.152
same,cell viability (log2),[11],inactive: 0.0045
same,cell viability (log2),[12],inactive: 0.0924
same,cell viability (log2),[13],inactive: 0.0196
same,cell viability (log2),[14],inactive: 0.0835
same,cell viability (log2),[15],inactive: -0.0212
same,cell viability (log2),[16],inactive: 0.0906
COC(=O)C1=C(C)NC(C)=C(C(=O)OC)C1c1ccccc1[N+](=O)[O-],cell viability (log2),[1],inactive: 0.0781
same,cell viability (log2),[2],inactive: -0.0421
same,cell viability (log2),[17],inactive: 0.146
same,cell viability (log2),[18],inactive: 0.0938
same,cell viability (log2),[3],inactive: 0.122
same,cell viability (log2),[4],inactive: 0.0366
same,cell viability (log2),[19],inactive: 0.151
same,cell viability (log2),[20],inactive: 0.0213
COc1cc(-c2n[nH]c(=S)n2-c2ccc(C)cc2)cc(OC)c1OC,cell viability (log2),[1],inactive: 0.094
same,cell viability (log2),[2],inactive: 0.0811
same,cell viability (log2),[3],inactive: 0.123
same,cell viability (log2),[4],inactive: 0.179
CNC(=O)[C@H]1O[C@@H](n2cnc3c(NCc4ccc(N)cc4)ncnc32)[C@H](O)[C@@H]1O,cell viability (log2),[17],inactive: 0.0764
same,cell viability (log2),[18],inactive: 0.129
same,cell viability (log2),[19],inactive: 0.151
same,cell viability (log2),[20],inactive: 0.0652
NC(=NCc1ccc(Cl)c(Cl)c1)NC(=O)c1nc(Cl)c(N)nc1N,cell viability (log2),[17],inactive: 0.134
same,cell viability (log2),[18],inactive: 0.0996
same,cell viability (log2),[19],inactive: 0.111
same,cell viability (log2),[20],inactive: 0.073
O=C(Nc1cccc(Cl)c1)/C(=C\c1ccco1)NC(=O)c1cccs1,cell viability (log2),[1],inactive: -0.0172
same,cell viability (log2),[2],inactive: 0.0581
same,cell viability (log2),[3],inactive: 0.0419
same,cell viability (log2),[4],inactive: 0.0226
COc1cc2c(cc1O)CC[C@@H]1[C@@H]2CC[C@]2(C)[C@@H](O)CC[C@@H]12,cell viability (log2),[5],inactive: 0.0202
same,cell viability (log2),[6],inactive: 0.0975
same,cell viability (log2),[17],inactive: 0.11
same,cell viability (log2),[18],inactive: 0.04
same,cell viability (log2),[7],inactive: 0.0934
same,cell viability (log2),[8],inactive: 0.0693
same,cell viability (log2),[9],inactive: -0.0172
same,cell viability (log2),[10],inactive: 0.0926
same,cell viability (log2),[19],inactive: 0.0437
same,cell viability (log2),[20],inactive: 0.0893
same,cell viability (log2),[11],inactive: 0.045
same,cell viability (log2),[12],inactive: 0.00908
same,cell viability (log2),[13],inactive: -0.104
same,cell viability (log2),[14],inactive: -0.0169
same,cell viability (log2),[15],active: -1.25
same,cell viability (log2),[16],active: -0.177
O=c1c(O)c(-c2ccccc2)oc2ccccc12,cell viability (log2),[1],inactive: 0.0903
same,cell viability (log2),[2],inactive: -0.0523
same,cell viability (log2),[3],inactive: 0.153
same,cell viability (log2),[4],inactive: 0.0869
COc1cc(=O)n(C)c2c(OCC(O)C(C)(O)OC)cccc12 (centres undefined),cell viability (log2),[17],inactive: 0.0868
same,cell viability (log2),[18],inactive: 0.119
same,cell viability (log2),[19],inactive: 0.0738
same,cell viability (log2),[20],inactive: 0.114
CO[C@@]1(NC(=O)C(C(=O)O)c2ccc(O)cc2)C(=O)N2C(C(=O)O)=C(CSc3nnnn3C)CO[C@@H]21 (some centres undefined),cell viability (log2),[1],inactive: 0.0656
same,cell viability (log2),[2],inactive: 0.0075
same,cell viability (log2),[3],inactive: 0.163
same,cell viability (log2),[4],inactive: -0.00521
Oc1cc(O)cc(/C=C/c2ccccc2)c1,cell viability (log2),[1],inactive: 0.0674
same,cell viability (log2),[2],inactive: 0.00318
same,cell viability (log2),[3],inactive: 0.07
same,cell viability (log2),[4],inactive: 0.0614
COC(=O)C1=C(C)N=C2SCCC(=O)N2C1c1ccc(OC)cc1 (centres undefined),cell viability (log2),[1],inactive: 0.0178
same,cell viability (log2),[2],inactive: 0.0759
same,cell viability (log2),[3],inactive: 0.0162
same,cell viability (log2),[4],inactive: 0.0699
C#C[C@]1(O)CC[C@H]2[C@@H]3CCC4=CC(=O)CC[C@@H]4[C@H]3CC[C@@]21C,cell viability (log2),[1],inactive: 0.148
same,cell viability (log2),[2],inactive: -0.0274
same,cell viability (log2),[3],inactive: 0.138
same,cell viability (log2),[4],inactive: 0.146
O=[N+]([O-])c1ccc(Oc2ccc(Br)cc2)c(C(O)[P+](=O)O)c1 (centres undefined),cell viability (log2),"0.025 µM, library screen: screen1, EWS-FLI1 expression: high (no doxycycline)",inactive: 0.0442
same,cell viability (log2),"0.025 µM, library screen: screen1, EWS-FLI1 expression: low (doxycycline-induced shRNA knockdown)",inactive: 0.0701
same,cell viability (log2),[1],inactive: 0.235
same,cell viability (log2),[2],inactive: 0.0171
same,cell viability (log2),[3],active: -0.289
same,cell viability (log2),[4],inactive: -0.0253
same,cell viability (log2),"25 µM, library screen: screen1, EWS-FLI1 expression: high (no doxycycline)",active: -0.404
same,cell viability (log2),"25 µM, library screen: screen1, EWS-FLI1 expression: low (doxycycline-induced shRNA knockdown)",inactive: -0.0834
COc1cc2c(CCNC(C)=O)c[nH]c2cc1O,cell viability (log2),[17],inactive: 0.151
same,cell viability (log2),[18],inactive: 0.0505
same,cell viability (log2),[19],inactive: 0.0559
same,cell viability (log2),[20],inactive: -0.0127
C[C@@H]1CC[C@@]2(OC1)O[C@H]1C[C@H]3[C@@H]4CC[C@H]5C[C@@H](O)CC[C@]5(C)[C@H]4CC[C@]3(C)[C@H]1[C@@H]2C,cell viability (log2),[1],inactive: 0.0465
same,cell viability (log2),[2],inactive: 0.154
same,cell viability (log2),[3],inactive: 0.0795
same,cell viability (log2),[4],inactive: 0.116
CC(=O)OC/C=C(C)/C=C/C=C(C)/C=C/C1=C(C)CCCC1(C)C,cell viability (log2),[1],inactive: 0.18
same,cell viability (log2),[2],inactive: 0.0819
same,cell viability (log2),[3],inactive: 0.143
same,cell viability (log2),[4],inactive: 0.0752
O=C1C(CC[S+]([O-])c2ccccc2)C(=O)N(c2ccccc2)N1c1ccccc1 (centres undefined),cell viability (log2),[1],inactive: 0.123
same,cell viability (log2),[2],inactive: 0.158
same,cell viability (log2),[3],inactive: 0.184
same,cell viability (log2),[4],inactive: 0.139
O=C(c1cc(-c2ccccc2)nc2ccccc12)N1CCN(c2ccccc2)CC1,cell viability (log2),[1],inactive: 0.112
same,cell viability (log2),[2],inactive: 0.0402
same,cell viability (log2),[3],inactive: 0.113
same,cell viability (log2),[4],inactive: 0.188
COc1cc(C(=O)O)c2c(c1C)OC(=O)c1c(C)cc(O)c(C=O)c1O2,cell viability (log2),[1],inactive: 0.0519
same,cell viability (log2),[2],inactive: 0.109
same,cell viability (log2),[3],inactive: 0.00408
same,cell viability (log2),[4],inactive: 0.151
